Test results as given in PubChem BioAssay AID504832 (National Center for Advancing Translational Sciences (NCATS), 2011).
Among all 310,000 compounds or so, about 18,000 (5.8%) were called active. Inconclusive means that the source gave no clear call. Such entries were picked first, then a sample of the others. Calls follow the shape of the dose curve; as a rule, active = well fitted inhibition curve with a large enough effect; inconclusive = small, poorly fitted or top-dose-only effect, or another doubt; inactive = no such curve, though single readings can be large or run the other way. No potency is given beside an inconclusive call; the fits are too rough.

Assay: Primary qHTS for delayed death inhibitors of the malarial parasite plastid, 48 hour incubation
Settings: P. falciparum luciferase growth in erythrocytes; series mostly up to 28.7 µM; activity change, negative = inhibition: at the top concentration
Method in brief: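 A one-generation exposure of luciferase-tagged malaria parasites in RPMI 1640/Albumax erythrocyte culture, 37 C and 5% CO2. Inhibition is inferred from decreased luminescence after adding detection reagent.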
% is scaled to controls: 0 for no effect and ±100 for the full control effect; potency is read from the fitted curve at half-maximal effect; tags tell the direction and shape of the fitted curve.

Row | Compound | activity change, negative = inhibition | Potency
1 | CN(Cc1c(F)cccc1Cl)C(=O)CNC(=O)c1sc2ccccc2c1Cl | inactive: -6.58% | –
2 | CCOc1ccc(OCc2ccc(C(=O)N3CCCC3)o2)cc1 | inactive: -6.9% | –
3 | COc1cc(OC)cc(C(=O)NC(=S)N2CCCCCC2)c1 | – | inconclusive [inhibitor, single point]
4 | Cc1cccc(-c2nc(Nc3ccc(O)cc3)c3ccccc3n2)c1 | – | inconclusive [inhibitor, single point]
5 | O=C(Cn1c(=O)oc2cc(S(=O)(=O)N3CCCC3)ccc21)NCc1ccccn1 | inactive: 11.7% | –
6 | NC(=O)CC(NC(=O)Cc1ccc(Cl)cc1)c1ccc(NCCc2ccccc2F)c([N+](=O)[O-])c1 (stereo not drawn) | – | inconclusive [inhibitor, partial curve]
7 | Cc1cc(NNC(=O)c2cccc(C(F)(F)F)c2)nc2c1c(C)nn2C | inactive: 21.6% | –
8 | O=C(CCCN1CCC(NC(=O)c2ccccc2)CC1)c1ccc(Cl)cc1 | – | inconclusive [inhibitor, single point]
9 | CCCn1c(-c2cccnc2Cl)nc2cc(Cl)c(Cl)cc21 | – | inconclusive [inhibitor, single point]
10 | COc1ccccc1C(c1nnnn1CC1CCCO1)N1CCC(C(N)=O)CC1 (stereo not drawn) | – | inconclusive [inhibitor, single point]
11 | CCn1c(SCC(=O)Nc2ccccc2N2CCCCC2)nc2c1c(=O)n(C)c(=O)n2C | – | inconclusive [inhibitor, single point]
12 | O=[N+]([O-])c1ccc(/C=N/Nc2nc(N3CCCCC3)nc(N3CCCCC3)n2)o1 | – | inconclusive [inhibitor, partial curve, poor fit]
13 | O=c1oc2ccccc2c2[nH]ccc12 | – | inconclusive [inhibitor, partial curve, poor fit]
14 | CC1(C)CC(=O)c2c(nc(SCC(=O)Nc3nsc(-c4ccccc4)n3)c(C#N)c2-c2ccccc2)C1 | – | inconclusive [inhibitor, partial curve]
15 | Cc1cccc(-c2ccc3ncnc(NCc4cc(C)cs4)c3c2)c1 | – | active: 11.7 µM
16 | Cc1cc(OC(=O)N(C)C)n(-c2ccccc2)n1 | – | inconclusive [inhibitor, single point]
17 | c1ccc(COCC2CCNCC2)cc1 | inactive: 4.1% | –
18 | O=C(NCCCN1CCCCC1)c1ccc2c(c1)ncn2C1CCCC1 | inactive: -10.5% | –
19 | CC(=O)Nc1ccc(NCc2cccs2)cc1 | inactive: 31.2% | –
20 | Cc1cc(C)c(NC(=O)c2cccs2)c(C)c1NC(=O)c1cccs1 | inactive: -4.15% | –
21 | CCN(CC)CCNC(=O)c1ccc(NC(=O)C2CC(=O)N(CCc3ccc(OC)c(OC)c3)C2)cc1 (stereo not drawn) | – | inconclusive [inhibitor, single point]
22 | O=S(=O)(c1cccc(-c2nc3n(n2)Cc2ccccc2-3)c1)N1CCCCC1 | – | inconclusive [inhibitor, partial curve, poor fit]
23 | Cc1nc2nc(SCC(=O)NCCCN3CCCCC3)nn2c(C)c1Cc1ccccc1 | – | inconclusive [inhibitor, single point]
24 | COC(=O)c1ccc(COc2cc(C)ccc2C)o1 | inactive: 30.6% | –
25 | Cc1cc(OCc2cc(C(=O)NC3CCC3)no2)cc(C)c1Cl | – | inconclusive [inhibitor, single point]

Row | Compound | activity change, negative = inhibition | Potency
26 | Cc1cc(C)n(-c2nc(-n3nc(C)cc3C)c3c4c(sc3n2)COC(C)(C)C4)n1 | – | inconclusive [inhibitor, partial curve]
27 | Clc1ccc(-c2nnc(SCc3ccon3)o2)c(Cl)c1 | inactive: 138% | –
28 | O=C(NCC1CCCO1)c1cccc(NC(=O)c2ccco2)c1 (stereo not drawn) | inactive: 24.1% | –
29 | Cc1ccc(NC(=O)CSc2nc3ccccc3c(=O)n2CCCC(=O)NCCCN2CCOCC2)cc1 | – | inconclusive [inhibitor, partial curve]
30 | CCOc1cc(C2CC(=O)NC3=C2C(=O)C(C(=O)OC)C(C)C3)cc(Br)c1O (stereo not drawn) | – | active: 1.47 µM
31 | CCOC(=O)c1cnc(-n2nc(C)cc2C)nc1Nc1ccc(OC)cc1 | – | active: 4.15 µM
32 | Cc1ccc2c(CN3CCCCC3C)cc(=O)oc2c1C (stereo not drawn) | – | inconclusive [inhibitor, single point]
33 | CCOC(=O)C1=C(C)NC2=C(C(=O)C(C(=O)OCC)C(c3cccc(OC)c3)C2)C1c1ccccn1 (stereo not drawn) | – | active: 8.28 µM
34 | COc1c[nH]n(C2CCCCC2)c(=O)c1=O | – | inconclusive [inhibitor, single point]
35 | O=C(NCCCN1CCOCC1)C(Cl)(Cl)Cl | – | inconclusive [inhibitor, partial curve, poor fit]
36 | COc1ccc(C2CC(C(F)(F)F)n3ncc(C(=O)Nc4cccc(O)c4)c3N2)cc1OC (stereo not drawn) | – | active: 10.4 µM
37 | O=C(CCCC(=O)N(c1ccc2c(c1)OCCO2)C(C(=O)NC1CCCCC1)c1ccc(Cl)cc1)Nc1ccccn1 (stereo not drawn) | – | inconclusive [inhibitor, partial curve]
38 | Cc1cccc(C)c1N(CC(=O)NCc1ccccc1)C(=O)c1csnn1 | inactive: 24.1% | –
39 | COC(=O)c1ccc(C(=O)OC)c(NC(=O)CSCc2ccc(Br)cc2)c1 | – | inconclusive [inhibitor, single point]
40 | COc1ccc(/C=c2\s/c(=C\C(=O)C(C)(C)C)[nH]c2=O)cc1O | – | inconclusive [inhibitor, partial curve]
41 | CCOc1ccc(OCCn2c(S(=O)(=O)O)nc3c(N)ncnc32)cc1 | inactive: 16.6% | –
42 | COc1ccc(N2C(=O)NC(=O)/C(=C/c3ccc(N4CCOCC4)cc3)C2=O)cc1 | inactive: 0% | –
43 | COc1ccc(C)cc1S(=O)(=O)N1CCCC(C(=O)N2CCN(c3ccccc3)CC2)C1 (stereo not drawn) | – | active: 7.38 µM
44 | COc1ccc(CNC(=O)Cn2cccc2C(=O)c2ccccc2C)cc1 | inactive: 40.2% | –
45 | O=C(NC(=S)N1CCCCCC1)c1ccccc1Cl | – | active: 5.22 µM
46 | O=C(CSc1cccc2cccnc12)Nc1cccc(S(=O)(=O)N2CCOCC2)c1 | – | inconclusive [inhibitor, single point]
47 | CS(=O)(=O)N(Cc1ccccc1)c1ccccc1C(=O)N1CCN(c2ccccc2)CC1 | – | inconclusive [inhibitor, partial curve]
48 | CCc1nc(C)ccc1OCC(=O)N1CCc2c([nH]c3ccccc23)C1c1ccccn1 (stereo not drawn) | inactive: 1.83% | –
49 | N#CC1=C(N)N(c2ccc(F)cc2)C(=O)C1 | – | inconclusive [inhibitor, single point]
50 | COc1cc(C)c(C(C)C)cc1S(=O)(=O)n1cnc(C)c1 | – | inconclusive [inhibitor, single point]

Row | Compound | activity change, negative = inhibition | Potency
51 | CC(C)N1CCN(Cc2ccc(-c3ccccc3Cl)o2)CC1CCO (stereo not drawn) | – | inconclusive [inhibitor, single point]
52 | Cc1ccc(C)n1-c1ccc(C(=O)N2CCC(C(N)=O)CC2)cc1 | – | inconclusive [inhibitor, partial curve]
53 | CC(NCC(O)COCCC12CC3CC(CC(C3)C1)C2)c1ccccc1 (stereo not drawn) | – | active: 5.22 µM
54 | C=CCN1C(=O)C(CC(=O)Nc2ccccc2)SC1=Nc1ccc(S(N)(=O)=O)cc1 (stereo not drawn) | – | inconclusive [inhibitor, partial curve, poor fit]
55 | CCC1CCCCN1CCn1c(=S)[nH]c2cc(OC)c(OC)cc2c1=O (stereo not drawn) | – | inconclusive [inhibitor, single point]
56 | CCCCN(c1ccccc1)S(=O)(=O)c1cccc(C(=O)O)c1 | – | inconclusive [inhibitor, full curve, poor fit]
57 | O=c1[nH]c(C2CCCN(S(=O)(=O)c3ccccc3)C2)nc2c1nnn2Cc1ccccc1Br (stereo not drawn) | – | inconclusive [inhibitor, single point]
58 | O=C(CSc1nnc(NC(=O)c2cccc(Br)c2)s1)NCC1CCCO1 (stereo not drawn) | inactive: 31.3% | –
59 | COc1ccc(CCNC(=O)C(=O)NCc2ccccc2)cc1OC | – | inconclusive [inhibitor, single point]
60 | CCCNC(=O)N1CCN(S(C)(=O)=O)CC1 | inactive: -3.56% | –
61 | O=C1c2cccc3c(O)ccc(c23)C(=O)N1Cc1ccco1 | inactive: 2% | –
62 | CCOC(=O)C1CCCN(c2c(NCCc3ccc(Cl)cc3)c(=O)c2=O)C1 (stereo not drawn) | – | inconclusive [inhibitor, partial curve]
63 | CCOC(=O)C(C)n1nc(/C=C/c2ccccc2)ccc1=O (stereo not drawn) | – | inconclusive [inhibitor, partial curve, poor fit]
64 | Cc1noc(C)c1S(=O)(=O)N1CCCC(C(=O)NCc2ccccc2Cl)C1 (stereo not drawn) | inactive: 1.4% | –
65 | CC(C)(C)n1nnnc1C(c1cccc(C#N)c1)N1CCCc2ccccc21 (stereo not drawn) | – | active: 9.28 µM
66 | Cc1noc(C)c1C(=O)Nc1nc(C23CC4CC(CC(C4)C2)C3)cs1 | – | active: 11.7 µM
67 | Cc1cccc(C(=O)NC(=S)NNC(=O)Cc2ccccc2)c1 | – | inconclusive [inhibitor, single point]
68 | O=C1CC(c2ccc(Cl)c([N+](=O)[O-])c2)c2ccc3ccccc3c2N1 (stereo not drawn) | – | inconclusive [inhibitor, single point]
69 | CCCCN(CC)CCCNC(=O)c1cn(C)c(=O)c2c1c1ccccc1n2C | – | inconclusive [inhibitor, single point]
70 | COc1ccc(N2CCN(C(=O)c3ccccc3)CC2)c([N+](=O)[O-])c1 | inactive: 35.7% | –
71 | CC(C)(C)OC(=O)NC(CCCCNC=O)C(=O)O (stereo not drawn) | inactive: 31.1% | –
72 | COC(=O)c1cc(Nc2cc(C)c3c(O)cccc3n2)cc(C(=O)OC)c1 | – | active: 9.28 µM
73 | COc1cccc(C(=O)CSc2nnc(CNc3nc(-c4ccccc4)cs3)n2C)c1 | – | inconclusive [inhibitor, single point]
